Source: PubChem BioAssay (NCI)
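Cultured in 96-well plates, cells were exposed to test compound for 48 hours across five concentrations. Abbreviation: GI50, concentration required for 50% inhibition of growth. TGI: total growth inhibition.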

Each compound was assayed on NCI-H322M lung (assay: NCI tumour cell line growth inhibition, 48 h).
For `CCOc1ccccc1[C@H]1C(C(=O)c2ccc(Cl)cc2)C2(N[C@@H]1c1ccccc1)C(=O)Nc1ccccc12` (stereo partly drawn), the GI50 was 8.61 µM and the TGI was > 39.8 µM. Work on `COc1ccc2[nH]c(=O)c(CSc3nccc(-c4ccc(OC)c(OC)c4)n3)cc2c1` yielded a GI50 of 12.8 µM and a TGI of 26.3 µM. Compound `CN(C)c1ccnc(CNCCSC2(c3ccc(C(F)(F)F)cc3)c3ccccc3C=Cc3ccccc32)c1` has a GI50 of 1.69 µM and a TGI of 16.1 µM. For `COC(=O)c1ccc(-n2cc(CCCN(CCNc3ccnc4cc(Cl)ccc34)C(=O)CCC(=O)O[C@@H]3O[C@@H]4OC5(C)CC[C@H]6[C@H](C)CC[C@@H]([C@H]3C)[C@@]46OO5)nn2)cc1`, the GI50 was > 10.8 µM and the TGI was > 10.8 µM.
